The other results are listed elsewhere or left out.
What follows are sequences tested on PF3D7_0420300 AP2 domain 1 (GST-tagged) (assay: gcPBM binding intensity (ln(normalized median fluorescence intensity)); higher = stronger DNA binding).
Procedure, shortened: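 An Agilent 4 × 180k array carrying primer-extended double-stranded 36-bp intergenic genomic probes and negative controls received GST-tagged P. falciparum DNA-binding domains expressed in E. coli, about 25 μg on average, for 1 h. The binding buffer contained 1× PBS, 1% milk, 0.2 mg/ml BSA, 0.5% salmon testes DNA and 0.03% Triton X-100. Binding intensity is the top Masliner-normalised natural-log median intensity across replicate spots of either probe orientation, read after Alexa488 anti-GST antibody staining and a 488 nm scan.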

| Sequence | gcPBM binding intensity (ln) |
| --- | --- |
| TTGTAAGAAAAACACACACACACATATATATATATA [CACACA_site795] | 9.95 |
| TTTTCGGATAATAATTGTACGAAACATTTAAAAAAA [XGTACX_site8898] | 8.88 |
| TATATAATATATATATGTACACATATACATTTTTAT [XGTACX_site2832] | 9.26 |
| TAAATAGTTATAAAAGTGCAAAAAAAAAAAAAAAAA [GTGCAC_site9550] | 8.61 |
| ACTCAAAATTATAATTGTACAAATGCTTTGTTTAAT [XGTACX_site3437] | 9.28 |
| ATCATATATGTTATTACACACGTTATGTTATTATAA [CACACA_site2712] | 9.45 |
| TTAATTTCAAGTAGAAGTACTTTTATGATTGTGAGG [XGTACX_site1247] | 8.94 |
| GTGCATAGATGATATACACACAATATAATAGTATGT [CACACA_site5373] | 9.54 |
| TATAATTTAGCTTGTGCATGCAGGTGCTACATTTGT [TGCATGCA_site217] | 9.06 |
| TATATATATATATACACACACATATATATATATATA [CACACA_site1346] | 9.29 |
| GCATAAGAAATAAATAGTACACACATAGACACACAC [XGTACX_site3095] | 10 |
| ATAAGATATGTATATACACACATTTATTTACATATA [CACACA_site3263] | 9.54 |
| CGCACAAAAATATACACACACACATCTATATTTATT [CACACA_site7675] | 10 |
| AAAACAAATGAGTACACACACATAAAAGTTGAAAAT [CACACA_site6238] | 10 |
| TACCCATATTAATATGTGCGCATATAAAAGTCAAAC | 9.28 |
| TTTTTTTAAACTGAAAGTACTTATTCCAAGAAAATA [XGTACX_site50] | 8.64 |
| ATATATATATCAACAACACACGATTAACTAAAAAAA [CACACA_site302] | 9.59 |
| ATAATGACTAAATTTAAACACACAAGGGGAGTTTAC [CACACA_site8209] | 9.51 |
| CCTTATTATTATTTTACACACGTCCTAATAAGAGGA [CACACA_site1319] | 9.2 |
| TATTTAAAAATATATACACACATTTTATATTATTAT [CACACA_site781] | 9.42 |
| AATATATAAATAAATACACACATAAAATAGAAATAT [CACACA_site1663] | 10 |
| AAAAACAAAAAAGAAGCACACATATATATATATATA [CACACA_site8779] | 9.6 |

| Sequence | gcPBM binding intensity (ln) |
| --- | --- |
| TTTATCTGATATATTACACACAAAAAAAAAAAAAAA [CACACA_site7637] | 9.18 |
| AATATTATATATATGGGTACTAATTCCTTTAATTTC [XGTACX_site102] | 9.14 |
| TATTTTACAAAATAAGGTACGTAAATATATGGTAGG [XGTACX_site2133] | 9.47 |
| AAATATCTTTTATATTGTACATATTCCTTATGTGGA [XGTACX_site7638] | 9 |
| ATTTTTTTTATTTTTTCAATATATATATATATATAT [CACACA_negctrl_site1444] | 9.32 |
| TTATATATATATAATACACACATAATAATATATTTA [CACACA_site3038] | 9.39 |
| GAAATAGAAATAAAATAGGCATACAATAGAACTAAG [TGCATGCA_negctrl_site537] | 9.65 |
| TTATATATATATTATAGTACATATATAATATAGTAA [XGTACX_site6869] | 9.04 |
| ATATATGAGCAAAAATATATAAGATAACACATAAAT [CACACA_negctrl_site167] | 9.56 |
| TCTCTATAAATAAATACATGCATATAATAAAGAATT [TGCATGCA_site710] | 9.34 |
| CGTTATATATATAAAAGTACAAAAATTAAACATTCC [XGTACX_site4568] | 9.35 |
| ATATGTAAATAAATATGTACTCATTTATTATTTTAT [XGTACX_site8748] | 9.3 |
| ATATATACAAGTATTTTTTTTTCAAACATTATTTTT [CACACA_negctrl_site1808] | 9.15 |
| ATATGTATATTTTTTTGTACGTATTTATGTGTGTGT [XGTACX_site2093] | 9.92 |
| ATATTTTATGTGTTGGTGCACATCTTTATTTAAACT [GTGCAC_site9736] | 9.58 |
| ATATATATAATATAATGTACGTATAATAATATGAGA [XGTACX_site2282] | 9.46 |
| TAATAAATAAAATATGCACACAAATATAGGAAACAA [CACACA_site8820] | 9.85 |
| ATATATATATATATATGTACATAATAATATATATTA [XGTACX_site111] | 9.15 |
| TAAAAGGTGTATATAATACACACGTGGGATTAGAAT [CACACA_site610] | 9.47 |
| AAAATAAACAATGAACAATAAACAATGAACAATGAA [CACACA_negctrl_site1194] | 9.66 |
| TATATAAAGCATTGTAGTACTACCAATATTTTTTTT [XGTACX_site3523] | 9.2 |
| AAAAAATATACATATACACACATATGTATATAGAAT [CACACA_site2170] | 9.58 |
